# Measurements published in the RNAGym collection of RNA variant scans (doi:10.7554/elife.90254).
# Read counts are not given, so values of variants with three or more changes are uncertain.
# B1: OR4K15 (parent)
# chain: GUUAACGGUCAUAGGCCAUGGAAACUAGGAGCACCAUUUCGCUGCCAGUGAAGAAAUGAACAAAGAAAAUCUGGGCCAGGCAGGCAUCAAAAGAAAUAGUCUUGCGCUCAACCAGAAAGUCUGUAAUCAUUUUAAGGGUA
# Variants of: B1
# Experiment: self-cleavage, relative activity (ratio to wild type); higher = more cleavage; in vitro, sequencing; the parent is a self-cleaving ribozyme
row,Variant,self-cleavage
1,GUUAACGGUCAUAGGCCAUGGAAACUAGGAGCACCAUUUCGCUGCCAGCGAAGAAAUGAACAAAGAAAGUCUGGGCCAGGCAGGCAUCAAAAGAAAUAGUCUUGCGCUCAACCAGAAAGUCUGUUAUCAUUUUAAGGGUA [U49C A69G A125U],2.08
2,GUUAACGGUCAUAGGCCAUGGAAACUAGGAGCACCAUUUCGCUGCCAGCGAAGAAAUGAACAAAGAAAAUCUGGGCCAGGCAGGCAUCAAAAGAGAUAGUCUUGCGCUCAACCAGAAGGUCUGUAAUCGUUUUAAGGGUA [U49C A95G A118G A129G],0.62
3,GUUAACGGUCAUAGGCCAUGGAAACUAGGAGCACCAUUUCGCUGCCAGCGAAGAAAUGAACAAAGAAAGUCUGGGCCAGGCAGGCAUCAAAAGAAAUAGUCUUGCGCUCAACCAGGAAGUCUGUAAUCAUUUUAAGGGUA [U49C A69G A116G],0.47
4,GUUAACGGUCAUAGGCCAUGGAAACUAGGAGCACCAUUUCGCUGCCAGCGAAGAAAUGAACAAAGAAGAUCUGGGCCAGGCAGGCAUCAAAGGAAAUAGUCUUGCGCUCAACCAGAAAGUCUGUAAUCAUUUUAAGGGUA [U49C A68G A92G],0.55
5,GUUAACGGUCAUAGGCCAUGGAAACUAGGAGCACCAUUUCGCUGCCAGCGAAGAAAUGAACAAAGAAACUCUGGGCCAGGCGGGCAUCAAAGGAAAUAGUCUUGCGCUCAACCAGAAAGUCUGUAAUCAUUUUAAGGGUA [U49C A69C A82G A92G],0.27
6,GUUAACGGUCAUAGGCCAUGGAAACUAGGAGCACCAUUUCGCUGCCAGCGAAGAAAUGAACAAAGAAAGUCUGGGCCAGGCAGGCAUCAAAAGAAAUAGUCUUGCGCUCAACCAGAAAGUCUAUAAUCAUUUUAAGGGUA [U49C A69G G123A],1.73
7,GUUAACGGUCAUAGGCCAUGGAAACUAGGAGCACCAUUUCGCUGCCAGCGAAGAAAUGAACAAAGAAAAUCUGGGCCAGGCAGGCAUCAGAAGAAAUAGUCUUGCGCCCAACCAGAAAGUCUGUAAACAUUUUAAGGGUA [U49C A90G U108C U127A],0.01
8,GUUAACGGUCAUAGGCCAUGGAAACUAGGAGCACCAUUUCGCUGCCAGCGAAGAAAUGAACAAAGAAAGUCUGGGCCAGGCAGGCAUCAAAAGGAAUAGUCUUGCGCUCAUCCAGAAAGUCUGUAAUCAUUUUAAGGGUA [U49C A69G A94G A111U],0.12
9,GUUAACGGUCAUAGGCCAUGGAAACUAGGAGCACCAUUUCGCUGCCAGCGAAGAAAUGAACAAAGAGAAUCAGGGCCAGGCGGGCAUCAAAAGAAAUAGUCUUGCGCUCAACCAGAAAGUCUGUAAUCAUUUUAAGGGUA [U49C A67G U72A A82G],0.24
10,GUUAACGGUCAUAGGCCAUGGAAACUAGGAGCACCAUUUCGCUGCCAGCGAAGAAAUGAACAAAGAAAUUCUGGGCCAGGCUGGCAUCAAAAGAAAUAGUCUUGCGCUCAACCAGAAAGUCUGUAGUCAUUUUAAGGGUA [U49C A69U A82U A126G],0.04
11,GUUAACGGUCAUAGGCCAUGGAAACUAGGAGCACCAUUUCGCUGCCAGCGAAGAAAUGAACAAAGAAAAUCUGGGCCAGGCAGGCAUCAAAAGAAGUAGCCUUGCGCUCGACCAGAAAGUCUGUAAUCAUUUUAAGGGUA [U49C A96G U100C A110G],0.09
12,GUUAACGGUCAUAGGCCAUGGAAACUAGGAGCACCAUUUCGCUGCCAGCGAAGAAAUGAACAAAGAAAAUCUGGGCCAGGCAGGCAUCGAAAGAAAUAGUCUUGCGCCCAACCAGAAAGUCUGUAAUCAUUUUAAGGGUA [U49C A89G U108C],0.01
13,GUUAACGGUCAUAGGCCAUGGAAACUAGGAGCACCAUUUCGCUGCCAGCGAAGAAAUGAACAAAGAAAAUCUGGGCCAGGCAGGCAUCAAAAGAGAUAGUCUUGCGCUCAACCAGGAAGUCUGUAAUCAUUUUAAGGGUA [U49C A95G A116G],1.16
14,GUUAACGGUCAUAGGCCAUGGAAACUAGGAGCACCAUUUCGCUGCCAGCGAAGAAAUGAACAAAGAAAGUCUGGGCCAGGCAGGCUUCAAAAGAAAUAGUCUUGCGCUCAACCAGAAAGUCUGUAAUCACUUUAAGGGUA [U49C A69G A86U U130C],0.52
15,GUUAACGGUCAUAGGCCAUGGAAACUAGGAGCACCAUUUCGCUGCCAGCGAAGAAAUGAACAAAGAAAAUCUGGGCCAGGCAGGCUUCAAAAGAAAUAGUCCUGCGCUCAACCAGAAAGUCUGUAAUCAUUUUAAGGGUA [U49C A86U U102C],1.39
16,GUUAACGGUCAUAGGCCAUGGAAACUAGGAGCACCAUUUCGCUGCCAGCGAAGAAAUGAACAAAGAAUAUCUGGGCCAGGCAGGCACCAAAAGAAAUAGUCUUGCGCUCAACCAGAAAGUCGGUAAUUAUUUCAAGGGUA [U49C A68U U87C U122G C128U U133C],2.26
17,GUUAACGGUCAUAGGCCAUGGAAACUAGGAGCACCAUUUCGCUGCCAGCGAAGAAAUGAACAAAGAAAAUCUGGGCCAGGCAGGCAUCAAAAGAGAUAGUCUUGCGCUCAACCAGAAAGUCUGUAAUCAUUUAAAGGGUA [U49C A95G U133A],1.41
18,GUUAACGGUCAUAGGCCAUGGAAACUAGGAGCACCAUUUCGCUGCCAGCGAAGAAAUGAACAAAGAAAAUCUGGGCCGGGCAGGCAUCAAAAGAAAUAGUCUUGCGCUCAACCAGAGAGACUGUAAUCAUUUUAAGGGUA [U49C A78G A117G U120A],0.23
19,GUUAACGGUCAUAGGCCAUGGAAACUAGGAGCACCAUUUCGCUGCCAGCGAAGAAAUGAACAAAGAAAAUCUGGGCCAGGCAGGCGUCAAAAGAAAUAGUCUUGCGCUCAACCAGGAAGUCUGUAUUCAUUUUAAGGGUG [U49C A86G A116G A126U A140G],0.56
20,GUUAACGGUCAUAGGCCAUGGAAACUAGGAGCACCAUUUCGCUGCCAGCGAAGAAAUGAACAAAGAAAAUCUGGGCCAGGCGGGCAUCAAAAGAAGUAGUCUUGCGCUCAACCAGAAAGUCUGUAAUCAUUUUAAGGGUA [U49C A82G A96G],0.34
21,GUUAACGGUCAUAGGCCAUGGAAACUAGGAGCACCAUUUCGCUGCCAGCGAAGAAAUGAACAAAGAAAAUCUGGGCCAGGCAGGCAUCAGAAGAAACUGUCUUGCGCUCAACCAGAAAGUCUGUAGUCAUUUUAAGGGUA [U49C A90G U97C A98U A126G],0.11
